# The supplement of paper PMC4967469
# The IC50 comes from the fitted curve, where viability falls to half of the control; where the fit passes the top or lowest dose, that dose stands as a limit. The AUC spans the tested range (256-fold, ending at the top dose) of the same fit; it is 1 without any effect and falls as sensitivity rises. For some of these results: A top dose marked as inferred is not printed in the source and was worked back from the curve model. For some of these results: An entry number marks a drug with two screens in the source, which often give different values.
# How the values were obtained:
# Test in all cases: Viability of human cancer cell lines after 72 h of drug (GDSC screen)
# QL-X-138 = compound: C=CC(=O)Nc1cc(-n2c(=O)ccc3cnc4ccc(-c5cn[nH]c5)cc4c32)ccc1C [QL-X-138]; conditions: top dose 10.24 µM; top dose inferred
# Description: (§1)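 Human cancer cell lines in 384-well plates, medium with 10% serum, drug for 72 h over a 256-fold dose range (nine 2-fold or five 4-fold steps up to the top dose). Adherent lines were fixed and stained with the nucleic acid dye Syto60, suspension lines read with resazurin; signal relative to control wells, capped at 0 and 100%. One two-parameter sigmoid per drug and line, fitted in a mixed model over all curves with the slope shared within a line.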
# ABT-869 = compound: Cc1ccc(F)c(NC(=O)Nc2ccc(-c3cccc4[nH]nc(N)c34)cc2)c1 [ABT-869]; conditions: top dose 1.024 µM; top dose inferred
# Description: as §1
# ABT-888 = compound: C[C@]1(c2nc3c(C(N)=O)cccc3[nH]2)CCCN1 [ABT-888]; conditions: top dose 5 µM; top dose inferred
# Description: as §1
# Thapsigargin = compound: C/C=C(/C)C(=O)O[C@H]1C(C)=C2[C@H]([C@@H]1OC(=O)CCCCCCC)[C@@](C)(OC(C)=O)C[C@H](OC(=O)CCC)[C@@]1(O)[C@H]2OC(=O)[C@@]1(C)O [Thapsigargin]; conditions: top dose 0.512 µM; top dose inferred
# Description: as §1
# KU-55933 = compound: O=c1cc(-c2cccc3c2Sc2ccccc2S3)oc(N2CCOCC2)c1 [KU-55933]; conditions: top dose 10 µM
# Description: as §1
# Zibotentan = compound: COc1nc(C)cnc1NS(=O)(=O)c1cccnc1-c1ccc(-c2nnco2)cc1 [Zibotentan]; conditions: top dose 20 µM; top dose inferred
# Description: as §1
# CP466722 = compound: COc1cc2ncnc(-n3nc(-c4ccccn4)nc3N)c2cc1OC [CP466722]; conditions: top dose 16 µM; top dose inferred
# Description: as §1
# GSK269962A = compound: CCn1c(-c2nonc2N)nc2cnc(Oc3cccc(NC(=O)c4ccc(OCCN5CCOCC5)cc4)c3)cc21 [GSK269962A]; conditions: top dose inferred
# Description: as §1
# MPS-1-IN-1 = compound: COc1cc(N2CCC(O)CC2)ccc1Nc1cc(Nc2ccccc2S(=O)(=O)C(C)C)c2cc[nH]c2n1 [MPS-1-IN-1]; conditions: top dose 20 µM; top dose inferred
# Description: as §1
# (5Z)-7-Oxozeaenol = compound: COc1cc(O)c2c(c1)/C=C/C[C@H](O)[C@H](O)C(=O)/C=C\C[C@H](C)OC2=O [(5Z)-7-Oxozeaenol]; conditions: top dose 10 µM; top dose inferred
# Description: as §1
# CHIR-99021 = compound: Cc1cnc(-c2cnc(NCCNc3ccc(C#N)cn3)nc2-c2ccc(Cl)cc2Cl)[nH]1 [CHIR-99021]
# Description: as §1
# Cytarabine = compound: Nc1ccn([C@@H]2O[C@H](CO)[C@@H](O)[C@@H]2O)c(=O)n1 [Cytarabine]; conditions: top dose 2 µM
# Description: as §1
# [1] = top dose 5 µM, screen: GDSC drug entry 1192
# [2] = top dose 2.56 µM, screen: GDSC drug entry 154
# [3] = top dose 10 µM, screen: GDSC drug entry 1241, top dose inferred
# [4] = top dose 2.5 µM, screen: GDSC drug entry 127
Cell Line,AUC (QL-X-138),IC50 (QL-X-138) [µM],AUC (ABT-869),IC50 (ABT-869) [nM],AUC (ABT-888),IC50 (ABT-888) [µM],AUC (Thapsigargin),IC50 (Thapsigargin) [nM],AUC (KU-55933),IC50 (KU-55933) [µM],AUC (Zibotentan),IC50 (Zibotentan) [µM],AUC (CP466722),IC50 (CP466722) [µM],AUC (GSK269962A; [1]),IC50 (GSK269962A; [1]) [µM],AUC (MPS-1-IN-1),IC50 (MPS-1-IN-1) [µM],AUC ((5Z)-7-Oxozeaenol),IC50 ((5Z)-7-Oxozeaenol) [µM],AUC (CHIR-99021; [2]),IC50 (CHIR-99021; [2]) [µM],AUC (CHIR-99021; [3]),IC50 (CHIR-99021; [3]) [µM],AUC (Cytarabine),IC50 (Cytarabine) [nM],AUC (GSK269962A; [4]),IC50 (GSK269962A; [4]) [µM]
"NCI-H1688 (small cell lung carcinoma, adherent)",0.833,7.55,0.974,> 1020,0.987,> 5,0.511,34.4,0.985,> 10,0.985,> 20,0.918,> 16,0.934,> 5,0.937,> 20,0.961,> 10,0.987,> 2.56,0.982,> 10,0.977,> 2000,,
"NCI-H1693 (lung adenocarcinoma, adherent)",0.804,9.45,0.973,> 1020,0.899,> 5,0.824,> 512,0.947,> 10,0.966,> 20,0.875,> 16,0.908,> 5,0.97,> 20,0.707,3.46,0.969,> 2.56,0.929,> 10,0.872,> 2000,,
"NCI-H1755 (lung adenocarcinoma, adherent)",0.95,> 10.2,0.928,> 1020,0.966,> 5,0.757,202,0.951,> 10,0.972,> 20,0.577,1.68,0.733,1.63,0.899,> 20,0.826,7.38,0.888,> 2.56,0.798,5.64,0.771,890,,
"NCI-H1781 (lung adenocarcinoma, adherent)",0.839,7.02,0.989,> 1020,0.989,> 5,0.392,16.1,0.988,> 10,0.916,> 20,0.874,15.6,0.978,> 5,0.989,> 20,0.797,4.71,0.989,> 2.56,0.968,> 10,0.708,484,,
"NCI-H1792 (lung adenocarcinoma, adherent)",0.922,> 10.2,0.989,> 1020,0.989,> 5,0.173,3.76,0.979,> 10,0.989,> 20,0.978,> 16,0.91,> 5,0.952,> 20,0.918,> 10,0.99,> 2.56,0.796,4.15,0.853,1330,,
"NCI-H1944 (lung adenocarcinoma, adherent)",0.755,3.68,0.982,> 1020,0.985,> 5,0.353,12.2,0.962,> 10,0.984,> 20,0.763,6.12,0.919,> 5,0.885,> 20,0.899,> 10,0.985,> 2.56,0.982,> 10,0.238,20.5,,
"NCI-H1993 (lung adenocarcinoma, adherent)",0.729,3.61,0.981,> 1020,0.963,> 5,0.913,> 512,0.974,> 10,0.974,> 20,0.978,> 16,0.949,> 5,0.948,> 20,0.803,6.96,0.982,> 2.56,0.96,> 10,0.975,> 2000,,
"NCI-H2009 (lung adenocarcinoma, adherent)",0.898,> 10.2,0.985,> 1020,0.974,> 5,0.197,3.79,0.962,> 10,0.985,> 20,0.956,> 16,0.885,> 5,0.945,> 20,0.727,2.89,0.986,> 2.56,0.975,> 10,0.742,648,,
"NCI-H2087 (lung adenocarcinoma, semi-adherent)",0.768,4.12,0.975,> 1020,0.985,> 5,0.228,4.79,0.98,> 10,0.985,> 20,0.766,6.34,0.984,> 5,0.927,> 20,0.788,4.77,0.983,> 2.56,0.974,> 10,0.92,> 2000,,
"NCI-H2110 (non-small cell lung carcinoma, adherent)",0.648,1.66,0.985,> 1020,0.976,> 5,0.336,11.1,0.928,> 10,0.98,> 20,0.851,12.7,0.962,> 5,0.734,5.93,0.934,> 10,0.986,> 2.56,0.985,> 10,0.646,320,,
"NCI-H2172 (non-small cell lung carcinoma, adherent)",0.926,> 10.2,0.978,> 1020,0.981,> 5,0.899,> 512,0.972,> 10,0.979,> 20,0.924,> 16,0.864,> 5,0.944,> 20,0.905,> 10,0.977,> 2.56,0.92,> 10,0.817,1670,,
"NCI-H2227 (small cell lung carcinoma, semi-adherent)",0.714,2.82,0.971,> 1020,0.986,> 5,0.84,419,0.985,> 10,0.984,> 20,0.711,4.3,0.946,> 5,0.832,15.1,0.961,> 10,0.985,> 2.56,0.984,> 10,0.929,> 2000,0.91,> 2.5
"NCI-H2291 (lung adenocarcinoma, adherent)",0.975,> 10.2,0.98,> 1020,0.982,> 5,0.979,> 512,0.91,> 10,0.983,> 20,0.98,> 16,0.982,> 5,0.984,> 20,0.859,> 10,0.984,> 2.56,0.92,> 10,0.887,> 2000,,
"NCI-H2347 (lung adenocarcinoma, adherent)",0.869,> 10.2,0.97,> 1020,0.983,> 5,0.334,9.96,0.949,> 10,0.978,> 20,0.775,7.72,0.933,> 5,0.847,19.7,0.526,0.747,0.983,> 2.56,0.973,> 10,0.843,1890,,
"NCI-H2405 (lung adenocarcinoma, adherent)",0.822,6.84,0.983,> 1020,0.986,> 5,0.165,2.65,0.979,> 10,0.982,> 20,0.769,6.68,0.815,3.14,0.968,> 20,0.529,0.754,0.974,> 2.56,0.955,> 10,0.882,> 2000,,
"NCI-H2444 (non-small cell lung carcinoma, adherent)",0.988,> 10.2,0.987,> 1020,0.985,> 5,0.988,> 512,0.961,> 10,0.981,> 20,0.971,> 16,0.987,> 5,0.95,> 20,0.815,6.44,0.94,> 2.56,0.97,> 10,0.901,> 2000,,
"NCI-H2452 (mesothelioma, adherent)",0.984,> 10.2,0.981,> 1020,0.984,> 5,0.983,> 512,0.942,> 10,0.984,> 20,0.984,> 16,0.848,4.86,0.984,> 20,0.66,1.9,0.861,> 2.56,0.794,5.63,0.874,> 2000,,
"NUGC-4 (stomach, adherent)",0.917,> 10.2,0.985,> 1020,0.979,> 5,0.07,< 2,0.982,> 10,0.987,> 20,0.933,> 16,0.959,> 5,0.804,10,0.608,1.24,0.986,> 2.56,0.917,> 10,0.967,> 2000,,
"NY (osteosarcoma, adherent)",0.966,> 10.2,0.989,> 1020,0.974,> 5,0.095,< 2,0.899,> 10,0.989,> 20,0.959,> 16,0.944,> 5,0.989,> 20,0.708,2.39,0.935,> 2.56,0.859,8.11,0.819,1120,,
